# Reference: PubChem BioAssay AID1346428 (National Center for Advancing Translational Sciences (NCATS), 2018)
# Hit rate of the full screen: of about 48,000 compounds, about 1,200 (2.5%) were called active. Another 2% or so got no clear call; they are omitted.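 Rule for the calls: active = activation of at least 60% and not above a set upper limit (about 1 call in 100 departs from these limits); inconclusive = activation of 40% to 60%, or above that upper limit; inactive = activation under 40%.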 Some of the results follow.
# Molecular target: Probable G-protein coupled receptor 32 (Homo sapiens) (UniProt O75388)
# Assay: qHTS for Agonists of Human Resolvin D1 Receptor DRV1
# Conditions: CHO-K1 GPR32 beta-arrestin PathHunter luminescence, 90 min; at 76.9 µM; stronger effect = higher value; zero percent set by DMSO-only wells
# How it was run: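 PathHunter enzyme-fragment complementation, CHO-K1 GPR32 stable line; 2,500 cells/well, overnight attach; cpd 90 min 37 °C 5% CO2; detection reagent 1 h RT; chemiluminescence. DMSO = EC0.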
# Chain of UniProt O75388 (O75388 whole entry, looked up): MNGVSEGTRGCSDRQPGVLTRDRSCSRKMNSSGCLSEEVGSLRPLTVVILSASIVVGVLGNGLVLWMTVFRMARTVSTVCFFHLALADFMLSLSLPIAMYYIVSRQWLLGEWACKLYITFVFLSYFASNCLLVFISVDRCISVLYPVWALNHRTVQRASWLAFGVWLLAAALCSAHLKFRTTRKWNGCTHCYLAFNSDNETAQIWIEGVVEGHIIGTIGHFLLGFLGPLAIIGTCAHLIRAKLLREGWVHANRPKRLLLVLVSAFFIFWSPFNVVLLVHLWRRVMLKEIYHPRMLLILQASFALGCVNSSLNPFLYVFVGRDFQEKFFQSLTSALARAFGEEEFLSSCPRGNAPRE
row,Compound,activation
1,CC(NC(=O)c1cc(-c2ccc(Cl)cc2)on1)c1ccccc1 (stereo not drawn),inactive: -6.59%
2,COc1ccc(CNC(=O)c2ccc3c(c2)N(Cc2ccccc2)CCS3)cc1,inactive: -29.6%
3,CCOC(=O)c1nnn(CC(=O)NC(=O)Nc2ccc(F)cc2)c1C(=O)OCC,inactive: -0.693%
4,Cc1ccccc1C(=O)Nc1ccc2oc(-c3ccc(Cl)c(Cl)c3)nc2c1,inactive: -2.37%
5,Cc1ccccc1Nc1nnc(-c2ccc(C)c(S(=O)(=O)N3CCCCC3)c2)c2ccccc12,inactive: -3.38%
6,O=C(NCC(c1ccc2c(c1)OCO2)N1CCN(c2ccccc2)CC1)c1ccccc1 (stereo not drawn),inactive: -19.6%
7,CC(C)Oc1ccc(C(=O)Nc2nc3c(s2)CC(C(C)(C)C)CC3)cc1 (stereo not drawn),inactive: 7.14%
8,CC1Cn2cc(C(=O)Nc3ccccc3C(F)(F)F)c(=O)c3c(Cl)ccc(c32)O1 (stereo not drawn),inactive: 4.38%
9,Cc1nc2nc(C(F)(F)F)[nH]n2c(=O)c1Cc1ccccc1,inactive: 25.5%
10,Cc1oc2ncn(CC(C)C)c(=O)c2c1C(=O)N(Cc1ccccc1)C(C)C,inactive: -11.4%
11,COc1cc(OC)c(NC(=O)c2cn(C)c(=O)c3cc(OC)c(OC)cc23)cc1Cl,inactive: 2.93%
12,O=C(/C=C/c1ccccc1)N1CCN(Cc2cc(=O)n3nc(-c4ccccc4Cl)sc3n2)CC1,inactive: -4.38%
13,O=c1c2ccccc2nc2n1CCc1c-2[nH]c2ccccc12,inactive: 21.3%
14,Cc1ccc(Cn2c(C)c3cnn(CC(=O)N4CCN(c5ccc(F)cc5)CC4)c(=O)c3c2C)cc1,inactive: -0.22%
15,O=C(CN1C(=O)C2(SCC(=O)N2c2ccc(Cl)cc2)c2ccccc21)NCCc1ccccc1 (stereo not drawn),inactive: -21.3%
16,CCOc1ccccc1NC(=O)c1c(NC(=O)c2ccncc2)sc2c1CCC(C(C)(C)C)C2 (stereo not drawn),active: 113%
17,COc1ccc(Cl)cc1NS(=O)(=O)c1c(C)[nH]c(=O)[nH]c1=O,inactive: 5.84%
18,C#C[C@]1(OC(C)=O)CC[C@H]2[C@@H]3CCC4=C/C(=N/O)CC[C@@H]4[C@H]3CC[C@@]21CC,inactive: 31.1%
19,c1ccc(CNCCNCc2ccccc2)cc1,inactive: 2.48%
20,O=S(=O)(Nc1cccc(-c2ccc(N3CCCC3)nn2)c1)c1cc(F)ccc1F,inactive: -8.58%
21,CCOc1ccc(S(=O)(=O)Nc2ccc(OC)c(Cl)c2)c2cccnc12,inactive: 18.9%
22,Cc1cccc(OCCSc2nc3ccccc3n2CC(=O)N2CCOCC2)c1C,inactive: 6.65%
23,CCOc1ccc(C2C(C(N)=O)=C(C)Nc3nc(-c4cccc(Cl)c4)nn32)cc1OC (stereo not drawn),inactive: -18.2%
